The list shows a part of the results.
The sequences below were run on PfSIP2 AP2 domain 1 (GST-tagged) (assay: gcPBM binding intensity (ln(normalized median fluorescence intensity)); higher = stronger DNA binding).
How it was run: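 An Agilent 4 × 180k array of primer-extended double-stranded 36-bp intergenic genomic probes, with negative controls, was incubated for 1 h with GST-tagged P. falciparum DNA-binding domains expressed in E. coli. Alexa488 anti-GST antibody detected bound protein, scanned at 488 nm. Binding intensity is the highest Masliner-normalised natural-log median intensity across replicate spots of either probe orientation.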

Row | Sequence | gcPBM binding intensity (ln)
1 | ATACTATAATATAAAACACACATATGTACCTTCTAA [CACACA_site7323] | 7
2 | TTCAGGTAATAACATTGTACATGTGTATCATAATTA [XGTACX_site6740] | 6.88
3 | TTTTTTTTTTTTTTTTTTTTACAGAAAAATATTAAA [CACACA_negctrl_site128] | 6.8
4 | AATCATTAAAGCATAATGTTTATGATCAATATGAAA [CACACA_negctrl_site887] | 6.64
5 | TACACCCACATATATATACACACTTTTATTTAAATA [CACACA_site1596] | 7.34
6 | AAAAAAAATAATGTTGCACACAACAACAAACAAAAA [CACACA_site3290] | 7.19
7 | AATATATATATATGTGCACACATATATAATATGTAT [CACACA_site716] | 8.55
8 | CAATATGGAAAATAAAGTACGCACACAAAAATTCTC [XGTACX_site4793] | 7.37
9 | TAGATAAAATGAACATGTACTCATCTTAATATATAT [XGTACX_site34] | 7.07
10 | GGCATGACTATCTGCACACATAAAAATAAGAAATAC [CACACA_site841] | 7.56
11 | GATTTATACAAATATGTACACACTAATTATATATTA [CACACA_site8045] | 7.33
12 | ATAAACAGAAAAAAAAAAAAAAAAAAAAAAAAAAAA [CACACA_negctrl_site143] | 6.98
13 | TTTTTTTTCTCACAAAAAATAATTAACAAAAAGGAA [XGTACX_negctrl_site154] | 7.21
14 | ATAAAAAAAAAAAATACACACATATATTTATTTATA [CACACA_site6903] | 6.97
15 | TTTATATGGATTTTTTTTTAATATTTCTTTTAATTT [TGCATGCA_negctrl_site361] | 6.68
16 | TAAAAAAAAAAAAAAAGTACAAAAAAAATATTTTTT [XGTACX_site7941] | 6.74
17 | ATATGCTATTTACTAGTGCAAAATATTTAAAATATG [GTGCAC_site9517] | 8.53
18 | GTTGCACAATGTTACACACACAATATAGATCGTTAA [CACACA_site6717] | 7.47
19 | TTAATATAAGCAAATACACACACACCGATATATATA [CACACA_site9269] | 7.3
20 | AACAGACAAAGACACACACACATACATACATACATA [CACACA_site6351] | 7.25
21 | TATCATATTTTTATATGTACATAACATAAAAAAAAA [XGTACX_site2152] | 7.26
22 | TGATTTGTGCCGATTTGTACACATTTATATATATAT [XGTACX_site2154] | 8.76

Row | Sequence | gcPBM binding intensity (ln)
23 | TACATACATACATACACACACATATATATATATATA [CACACA_site1944] | 9.86
24 | ATTTTTTCATATTCTACACACGTGAACAAATGAGTC [CACACA_site5635] | 7.21
25 | CAATGTTAACATATTACACACATATGTATATATAAT [CACACA_site8878] | 6.91
26 | GACAACTCTTTTCATACACACAAAAAAAAAAAAATA [CACACA_site2361] | 7.34
27 | TCACATATATATTAATGTACATATATTTTTTATGTA [XGTACX_site5125] | 7.01
28 | GATATATCCTATGTTATTTTTATGGTGTAATTTAGT [XGTACX_negctrl_site112] | 7.05
29 | AGAAAGAAAATATATACACACAAAAAAAAATATATA [CACACA_site1412] | 6.94
30 | TTTTTTTTATGTATCACACATAATTTTTTATTATGA [CACACA_site5534] | 6.79
31 | ATAATAACAAGGCGCTGTACTGTACCGTTTTTCATA [XGTACX_site6135] | 6.78
32 | CATCCACAAATATGTACACACATATATAAATATGTA [CACACA_site7407] | 7.28
33 | ATTATTAATAATTGTGTGCACAAATATTTATATGCT | 8.19
34 | ATATCAATATAAAGTACACACTATAGTATGTATTAT [CACACA_site5286] | 7
35 | ATATTGTATTATCTTTATGTACCAAAAAAAAAAAAA [CACACA_negctrl_site1036] | 7.09
36 | ATGAACATACAATATACACACATATAGATTTATATT [CACACA_site6524] | 7.02
37 | TCATTATTAATATGTAGTACATTATATGATATGTAT [XGTACX_site8978] | 7.04
38 | TTCTTTTTAAATTACACACACATATATATCTGTATA [CACACA_site5863] | 7.28
39 | TAAAGGATTTTCGAAGCATGCCACCTGTGACATACT [TGCATGCA_site130] | 6.5
40 | TTTATACAATTAGACACACACAAAAAGTATATATAT [CACACA_site1082] | 7.42
41 | CATTCAAAGAAAAACTGTACGTGTAGCAAACGTCAT [XGTACX_site2576] | 6.88
42 | CAAATACCCGGACACACACACACAAAAAAAAAAAAA [CACACA_site4441] | 7.41
43 | ATGGGTATATTTCCACGTACAAAAAATCCGAATTGC [XGTACX_site1490] | 7.13
44 | ATATAATTACATTGATGTACACGAAATGATTAACAT [XGTACX_site5183] | 6.92

From the supplement of paper PMC11417369
